Results published in PubChem BioAssay AID1508642 (National Center for Advancing Translational Sciences (NCATS), 2021).
The campaign covered roughly 43,000 compounds. About 200 (0.47%) were called active. About 12% were inconclusive and are not listed. Calls come from the whole dose curve; as a rule, active = well fitted cell-killing curve with a large enough effect; inconclusive = small, poorly fitted or top-dose-only effect, or effect the other way; inactive = flat fitted curve, though single readings scatter. Some of the results follow.

Assay: Cell viability qHTS assay in S16 Pmp22-F2sN cells; note: nearly all actives have a fitted effect of over 65% in size
Settings: S16 Pmp22-F2sN Schwann cells viability, CellTiter-Glo, 24 h; series mostly up to 57.5 µM; activity change, negative = cytotoxicity: at the top concentration
Outline: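 S16 Pmp22-F2sN Schwann cells (500-1,000/well) in phenol-red-free DMEM with 10% FBS received 23 nL compound by pin tool for 24 h at 37 °C. Viability was then read as CellTiter-Glo luminescence after 15 min at room temperature.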
% is set by controls: 0 for no effect and ±100 for the full control effect.

SMILES	activity change, negative = cytotoxicity
CCC12CN3CC(CC)(CN(C1)C3c1cc(Br)ccc1OC)C2=O (stereo not drawn)	inactive: 1.76%
CCn1cc(C(=O)NCc2ccc(C)cc2)c(=O)c2cc(S(=O)(=O)N3CCc4ccccc4C3)ccc21	inactive: -0.389%
Cc1nc(-c2ccc(S(=O)(=O)N3CCN(c4ccc(F)cc4)CC3)cc2)co1	inactive: -20.6%
Cc1ccc(-n2nc3c(=O)n(CCCC(=O)NCc4ccccc4F)nc(C)c3c2C)cc1	inactive: 1.83%
Cc1csc2nc(COC(=O)CNC(=O)c3ccccc3Cl)cc(=O)n12	inactive: 13.5%
O=C(CSc1nc2ccncc2[nH]1)Nc1ccccc1C(F)(F)F	inactive: -1.17%
O=C(Nc1c(C(=O)N2CCN(c3ccccc3F)CC2)oc2ccccc12)c1ccccc1F	inactive: -0.747%
O=C(CN1CCCN(Cc2ccc(F)cc2)S1(=O)=O)NCc1ccccc1Cl	inactive: -2.26%
CN1CCN(CCCNC(=O)c2ccc3nc(Cc4ccccc4)oc3c2)CC1	inactive: 4.43%
COc1ccccc1-c1nnc(C2CCN(C(=O)c3ccc(Cl)cc3)CC2)o1	inactive: 4.51%
Cc1ccc(Cn2c(CNC(=O)c3cccc(C)c3)nc3ccccc32)cc1	inactive: 3.81%
COc1cccc2c1Oc1ncccc1N(C(=O)CCC(=O)NCc1ccc(C)cc1)C2	inactive: -6.85%
CCc1ccc(N(C)S(=O)(=O)c2ccc3[nH]cc(C(=O)NCC4CCCO4)c(=O)c3c2)cc1 (stereo not drawn)	inactive: -25.9%
N#Cc1ccccc1NC(=O)c1cnc(N2CCOCC2)c2ccccc12	inactive: 24.5%
CCC(=O)N1CCc2cc(Br)cc(S(=O)(=O)CCC(=O)NCc3ccc(F)cc3)c21	inactive: 5.68%
CC(=O)N1CCOc2cc(S(=O)(=O)N(C)Cc3ccccc3)c(Cl)cc21	inactive: 13.8%
CCCN1CCc2nc(N3CCN(c4ncccn4)CC3)ncc2C1	inactive: -2.77%
Cc1cccc(OCCCn2c(CCNC(=O)C(C)(C)C)nc3ccccc32)c1	inactive: -23.1%
Cc1ccc(C)c(CN2C(=O)c3ccccc3S(=O)(=O)c3ccc(C(=O)NCc4ccccc4)cc32)c1	inactive: -5.48%
Cc1c(C(=O)NCc2ccccc2Cl)sc2nc[nH]c(=O)c12	inactive: -2.87%
COc1ccc(CN(Cc2ccco2)c2cnc(S(C)(=O)=O)nc2C(=O)Nc2ccc(C)cc2C)cc1	inactive: -7.51%
CCOCCCNC(=O)C(=O)Nc1c2c(nn1-c1ccc(OC)cc1)CSC2	inactive: 1.36%
Cc1ccc2c(=O)c(C(=O)c3ccc(F)cc3)cn(CC(=O)NCCc3ccccc3)c2n1	inactive: -13%
CCOc1ccc(C(=O)Nc2ccc3oc(-c4cccnc4)nc3c2)cc1	inactive: 2.88%

SMILES	activity change, negative = cytotoxicity
CCN(CC)CCSc1nnc2c3cc(F)ccc3n(C)c2n1	inactive: 19.9%
Cc1cc(C)cc(NC(=O)CSc2nnc(-c3cc4occc4n3C)n2-c2ccccc2C)c1	inactive: 10.5%
O=S(=O)(NCCc1csc2nc(-c3ccccc3)nn12)c1ccc(Cl)s1	inactive: 5.05%
COc1ccc2c(CNC3CCCCCC3)c(C(=O)O)n(Cc3cccc(F)c3)c2c1	inactive: -6.24%
COc1ccc(-c2noc(CNS(=O)(=O)c3ccc(Br)cc3)n2)cc1OC	inactive: -7.66%
Cc1ccc(-c2noc(CN(C(=O)COc3cc(C)cc(C)c3C)C(C)C)n2)cc1	inactive: -16.1%
COC(=O)c1ccc(OC)c(CN2C(=O)N(c3ccc(C(C)=O)cc3)S(=O)(=O)c3ccccc32)c1	inactive: -2.68%
CCOC(=O)c1c(C)[nH]c(CCC(=O)Nc2ccc(Cl)cc2C)c1C	inactive: -10.3%
Cc1ccc(CNCc2c(C(=O)O)n(Cc3ccc(C)cc3)c3cc(C)ccc23)cc1	inactive: -5.86%
O=C(C1CCC(Cn2c(=O)c3sccc3n(Cc3ccccc3F)c2=O)CC1)N1CCCCC1 (stereo not drawn)	inactive: -7.25%
COc1ccccc1N(CC(=O)NCCSCc1cccc(Cl)c1)S(C)(=O)=O	inactive: 12.1%
Cn1c(=O)c2c(c3ccccc31)OC(=O)CC2c1cccc(F)c1 (stereo not drawn)	inactive: -3.43%
O=C(Nc1ccc(Cl)cc1)N1CCN(c2ccc3nnc(-c4ccccc4)n3n2)CC1	inactive: -7.89%
CCOc1ccc(NC(=O)c2cc3c(=O)n(Cc4cccs4)ccc3nc2C)cc1	inactive: 7.81%
Cc1cc(C)c(NC(=O)c2ncoc2-c2ccco2)c(C)c1	inactive: -7.53%
CCCCNC(=O)C1CCN(S(=O)(=O)c2ccc3c(ccn3CC)c2)CC1	inactive: 0.841%
COc1cccc(Nc2nc3cc(Cl)c(Cl)cc3nc2-n2nc(C)cc2C)c1	inactive: -2.93%
COc1ccc(NC(=O)Cn2nc(C)c3nn(-c4ccc(Cl)cc4)c(C)c3c2=O)cc1	inactive: -14.2%
CCOC(=O)Cn1c(=O)oc2cc(S(=O)(=O)N3CCN(c4ccc(C(C)=O)cc4)CC3)ccc21	inactive: 0.9%
CCOc1ccc(S(=O)(=O)c2cn(Cc3cc(C)ccc3C)c3ccc(OCC)cc3c2=O)cc1	inactive: -5.32%
CCOc1ccc(-c2nc(Cn3c(=O)cc(C)c4c(C)nn(-c5ccc(C)cc5)c43)c(C)o2)cc1	inactive: 2.29%
COc1ccccc1NC(=O)C1=C(C)Nc2nc(SCc3ccccc3)nn2C1c1cccnc1 (stereo not drawn)	inactive: 5.39%
O=C(Nc1ccccc1)C1CCN(S(=O)(=O)c2ccc3[nH]c4c(c3c2)CCCCC4)CC1	inactive: -16%
COc1ccc(CCNC(=O)CCn2c(=O)c3ccccc3n(CC(=O)Nc3ccc(C)cc3C)c2=O)cc1OC	inactive: -8.93%
